Assays:
[1] = molecular target: Ephrin type-B receptor 4 (Homo sapiens) (UniProt P54760); test: Inhibition of human recombinant EphB4 kinase expressed insect cells using Ulight-TK peptide substrate assessed as remaining enzyme activity at 1 uM after 90 mins relative to control
[2] = molecular target: Mitogen-activated protein kinase 1 (Homo sapiens) (UniProt P28482); test: Inhibition of human recombinant ERK2 expressed Escherichia coli using Ulight-CFFKNIVTPRTPPPSQGK-amide substrate assessed as remaining enzyme activity at 1 uM after 15 mins relative to control
[3] = molecular target: Fibroblast growth factor receptor 1 (Homo sapiens) (UniProt P11362); test: Inhibition of human recombinant FGFR1 kinase using Ulight-CAGAGAIETDKEYYTVKD substrate assessed as remaining enzyme activity at 1 uM after 60 mins relative to control
Chain of UniProt P11362 (P11362 whole entry, looked up): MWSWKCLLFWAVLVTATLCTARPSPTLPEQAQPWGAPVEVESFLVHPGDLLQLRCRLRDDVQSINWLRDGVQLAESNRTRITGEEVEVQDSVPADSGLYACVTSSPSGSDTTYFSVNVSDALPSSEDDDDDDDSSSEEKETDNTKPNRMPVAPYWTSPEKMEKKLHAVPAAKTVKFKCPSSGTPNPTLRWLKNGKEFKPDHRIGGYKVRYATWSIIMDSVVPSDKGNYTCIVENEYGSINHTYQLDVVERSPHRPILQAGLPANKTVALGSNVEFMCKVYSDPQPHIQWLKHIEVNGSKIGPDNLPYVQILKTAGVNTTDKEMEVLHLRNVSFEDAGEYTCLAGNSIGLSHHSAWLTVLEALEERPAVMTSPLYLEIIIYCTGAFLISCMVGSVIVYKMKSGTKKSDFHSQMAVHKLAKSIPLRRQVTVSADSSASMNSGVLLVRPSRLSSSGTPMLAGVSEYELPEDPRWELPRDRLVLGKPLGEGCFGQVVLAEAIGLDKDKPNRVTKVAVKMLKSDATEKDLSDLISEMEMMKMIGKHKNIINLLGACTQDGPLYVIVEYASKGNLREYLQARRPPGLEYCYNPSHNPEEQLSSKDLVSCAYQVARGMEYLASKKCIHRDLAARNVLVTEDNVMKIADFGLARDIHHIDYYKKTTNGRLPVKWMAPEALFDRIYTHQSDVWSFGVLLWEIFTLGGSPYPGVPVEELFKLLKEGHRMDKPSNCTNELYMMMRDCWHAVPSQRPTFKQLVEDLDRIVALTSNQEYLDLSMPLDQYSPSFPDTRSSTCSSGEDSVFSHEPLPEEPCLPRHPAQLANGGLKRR

[4] = molecular target: Fibroblast growth factor receptor 2 (Homo sapiens) (UniProt P21802); test: Inhibition of human recombinant FGFR2 kinase using Ulight-CAGAGAIETDKEYYTVKD substrate assessed as remaining enzyme activity at 1 uM after 15 mins relative to control
Chain of UniProt P21802 (P21802 whole entry, looked up): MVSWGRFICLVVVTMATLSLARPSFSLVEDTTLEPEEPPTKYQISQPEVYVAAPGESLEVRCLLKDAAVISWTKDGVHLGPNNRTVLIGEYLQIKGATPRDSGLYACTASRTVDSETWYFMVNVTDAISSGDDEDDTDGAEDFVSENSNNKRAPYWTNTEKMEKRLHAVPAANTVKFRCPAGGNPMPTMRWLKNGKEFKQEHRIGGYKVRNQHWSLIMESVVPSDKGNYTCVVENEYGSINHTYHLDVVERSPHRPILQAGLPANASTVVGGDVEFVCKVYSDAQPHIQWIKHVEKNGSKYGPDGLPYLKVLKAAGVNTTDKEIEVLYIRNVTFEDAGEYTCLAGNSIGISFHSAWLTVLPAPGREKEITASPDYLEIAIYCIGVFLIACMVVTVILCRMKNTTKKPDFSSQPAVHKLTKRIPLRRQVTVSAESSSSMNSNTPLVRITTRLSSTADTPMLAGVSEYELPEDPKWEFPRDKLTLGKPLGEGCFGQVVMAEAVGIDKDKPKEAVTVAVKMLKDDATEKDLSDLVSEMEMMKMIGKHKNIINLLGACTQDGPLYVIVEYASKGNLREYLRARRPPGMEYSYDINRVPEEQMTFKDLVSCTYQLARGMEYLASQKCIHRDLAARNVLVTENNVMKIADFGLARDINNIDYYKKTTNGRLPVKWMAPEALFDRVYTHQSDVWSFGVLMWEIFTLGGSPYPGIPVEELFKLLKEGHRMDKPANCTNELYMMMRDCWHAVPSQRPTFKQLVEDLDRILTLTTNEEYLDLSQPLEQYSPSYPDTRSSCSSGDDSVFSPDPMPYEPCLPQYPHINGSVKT

[5] = molecular target: Fibroblast growth factor receptor 3 (Homo sapiens) (UniProt P22607); test: Inhibition of human recombinant FGFR3 kinase using Ulight-CAGAGAIETDKEYYTVKD substrate assessed as remaining enzyme activity at 1 uM after 90 mins relative to control
Chain of UniProt P22607 (P22607 whole entry, looked up): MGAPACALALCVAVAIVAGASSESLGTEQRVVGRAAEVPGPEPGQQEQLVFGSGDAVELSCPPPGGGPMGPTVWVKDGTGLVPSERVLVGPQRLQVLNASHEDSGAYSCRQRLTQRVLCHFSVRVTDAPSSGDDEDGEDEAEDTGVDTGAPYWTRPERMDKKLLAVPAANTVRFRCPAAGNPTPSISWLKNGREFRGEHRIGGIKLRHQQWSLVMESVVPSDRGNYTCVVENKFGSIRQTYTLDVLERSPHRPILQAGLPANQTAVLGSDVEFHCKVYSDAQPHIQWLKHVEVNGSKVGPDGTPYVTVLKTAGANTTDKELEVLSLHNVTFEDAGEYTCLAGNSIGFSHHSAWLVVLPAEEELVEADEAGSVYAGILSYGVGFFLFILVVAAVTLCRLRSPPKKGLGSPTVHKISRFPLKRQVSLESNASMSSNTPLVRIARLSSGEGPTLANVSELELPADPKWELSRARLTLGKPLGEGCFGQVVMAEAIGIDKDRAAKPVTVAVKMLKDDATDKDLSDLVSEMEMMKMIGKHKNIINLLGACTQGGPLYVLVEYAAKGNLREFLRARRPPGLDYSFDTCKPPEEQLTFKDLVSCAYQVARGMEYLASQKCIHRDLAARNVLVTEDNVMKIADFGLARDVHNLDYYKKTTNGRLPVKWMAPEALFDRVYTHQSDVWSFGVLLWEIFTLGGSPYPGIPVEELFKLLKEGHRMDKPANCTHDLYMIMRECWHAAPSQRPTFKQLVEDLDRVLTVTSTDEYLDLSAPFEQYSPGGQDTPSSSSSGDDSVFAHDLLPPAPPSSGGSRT

[6] = molecular target: Mitogen-activated protein kinase kinase kinase kinase 4 (Homo sapiens) (UniProt O95819); test: Inhibition of human recombinant MAP4K4 using Ulight-FLGFTYVAP substrate assessed as remaining enzyme activity at 1 uM after 90 mins relative to control
[7] = molecular target: Inhibitor of nuclear factor kappa-B kinase subunit alpha (Homo sapiens) (UniProt O15111); test: Inhibition of human recombinant IKKalpha expressed Sf21 cells using Ulight-IkappaB-alpha substrate assessed as remaining enzyme activity at 1 uM after 30 mins relative to control
Chain of UniProt O15111 (O15111 whole entry): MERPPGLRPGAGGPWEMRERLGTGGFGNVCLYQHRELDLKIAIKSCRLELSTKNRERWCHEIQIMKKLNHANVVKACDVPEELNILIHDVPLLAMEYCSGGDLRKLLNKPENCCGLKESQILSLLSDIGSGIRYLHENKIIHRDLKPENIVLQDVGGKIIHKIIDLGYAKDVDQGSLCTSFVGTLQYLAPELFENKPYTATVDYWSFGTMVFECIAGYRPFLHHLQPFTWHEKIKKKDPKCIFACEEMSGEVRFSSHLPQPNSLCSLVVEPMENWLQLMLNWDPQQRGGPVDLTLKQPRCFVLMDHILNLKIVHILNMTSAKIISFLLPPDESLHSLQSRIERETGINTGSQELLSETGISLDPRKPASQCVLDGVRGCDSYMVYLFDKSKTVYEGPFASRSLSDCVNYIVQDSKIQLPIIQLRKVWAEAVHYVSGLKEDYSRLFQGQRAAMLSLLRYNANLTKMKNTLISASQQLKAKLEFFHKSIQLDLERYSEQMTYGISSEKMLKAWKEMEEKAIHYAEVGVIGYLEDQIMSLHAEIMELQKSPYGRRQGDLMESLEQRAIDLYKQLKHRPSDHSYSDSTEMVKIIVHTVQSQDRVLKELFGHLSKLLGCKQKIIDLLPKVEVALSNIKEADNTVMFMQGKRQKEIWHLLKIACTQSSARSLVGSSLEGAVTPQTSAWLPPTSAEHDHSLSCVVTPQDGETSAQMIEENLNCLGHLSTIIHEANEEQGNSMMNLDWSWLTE

[8] = molecular target: Tyrosine-protein kinase JAK3 (Homo sapiens) (UniProt P52333); test: Inhibition of human recombinant JAK3 using Ulight-CAGAGAIETDKEYYTVKD substrate assessed as remaining enzyme activity at 1 uM after 60 mins relative to control
[9] = molecular target: Mitogen-activated protein kinase 8 (Homo sapiens) (UniProt P45983); test: Inhibition of human recombinant JNK1 expressed Escherichia coli using Ulight-CFFKNIVTPRTPPPSQGK-amide substrate assessed as remaining enzyme activity at 1 uM after 60 mins relative to control
[10] = molecular target: Serine/threonine-protein kinase MARK1 (Homo sapiens) (UniProt Q9P0L2); test: Inhibition of human recombinant MARK1 using Ulight-RRRSLLE substrate assessed as remaining enzyme activity at 1 uM after 30 mins relative to control
Chain of UniProt Q9P0L2 (Q9P0L2 whole entry, looked up): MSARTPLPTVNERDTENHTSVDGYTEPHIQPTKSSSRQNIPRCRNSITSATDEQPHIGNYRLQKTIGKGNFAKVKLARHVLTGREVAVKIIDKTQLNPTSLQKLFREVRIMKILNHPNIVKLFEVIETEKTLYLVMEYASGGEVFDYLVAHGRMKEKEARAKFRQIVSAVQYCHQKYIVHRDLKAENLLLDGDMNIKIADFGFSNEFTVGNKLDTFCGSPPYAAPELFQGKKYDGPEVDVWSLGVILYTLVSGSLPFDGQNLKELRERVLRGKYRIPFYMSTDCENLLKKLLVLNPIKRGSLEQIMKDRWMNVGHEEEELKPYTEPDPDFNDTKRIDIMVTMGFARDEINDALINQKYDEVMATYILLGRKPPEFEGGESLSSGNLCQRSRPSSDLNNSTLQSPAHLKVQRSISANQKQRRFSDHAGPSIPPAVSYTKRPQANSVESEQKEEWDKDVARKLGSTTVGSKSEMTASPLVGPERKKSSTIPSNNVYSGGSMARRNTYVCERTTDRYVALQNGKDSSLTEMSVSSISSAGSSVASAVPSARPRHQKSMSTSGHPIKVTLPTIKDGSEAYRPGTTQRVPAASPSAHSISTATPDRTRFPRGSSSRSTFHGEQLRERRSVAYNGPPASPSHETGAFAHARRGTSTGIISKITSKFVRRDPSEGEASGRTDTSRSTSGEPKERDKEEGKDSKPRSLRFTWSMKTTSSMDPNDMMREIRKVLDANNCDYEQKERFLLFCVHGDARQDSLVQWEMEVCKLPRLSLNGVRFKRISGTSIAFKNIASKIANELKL

[11] = molecular target: Mitogen-activated protein kinase 14 (Homo sapiens) (UniProt Q16539); test: Inhibition of human recombinant p38alpha kinase expressed Escherichia coli using Ulight-CFFKNIVTPRTPPPSQGK-amide substrate assessed as remaining enzyme activity at 1 uM after 60 mins relative to control
[12] = molecular target: Serine/threonine-protein kinase PAK 2 (Homo sapiens) (UniProt Q13177); test: Inhibition of human recombinant PAK2 expressed Sf9 cells using Ulight-RRRSLLE substrate assessed as remaining enzyme activity at 1 uM after 60 mins relative to control
[13] = molecular target: Serine/threonine-protein kinase PAK 4 (Homo sapiens) (UniProt O96013); test: Inhibition of human recombinant PAK4 expressed insect cells using Ulight-RRRSLLE substrate assessed as remaining enzyme activity at 1 uM after 30 mins relative to control
[14] = molecular target: Serine/threonine-protein kinase pim-2 (Homo sapiens) (UniProt Q9P1W9); test: Inhibition of human recombinant Pim2 kinase expressed insect cells using CREBtide (CKRREILSRRPSYRK) substrate assessed as remaining enzyme activity at 1 uM after 60 mins relative to control
[15] = species on record: Homo sapiens; test: Inhibition of human recombinant PKA expressed Escherichia coli using Ulight-RRRSLLE substrate assessed as remaining enzyme activity at 1 uM after 10 mins relative to control
[16] = molecular target: Protein kinase C beta type (Homo sapiens) (UniProt P05771); test: Inhibition of human recombinant PKCbeta2 using CREBtide (CKRREILSRRPSYRK) substrate assessed as remaining enzyme activity at 1 uM after 15 mins relative to control
[17] = molecular target: Serine/threonine-protein kinase SIK1 (Homo sapiens) (UniProt P57059); test: Inhibition of human recombinant SIK expressed Sf21 cells using CREBtide(CKRREILSRRPSYRK) substrate assessed as remaining enzyme activity at 1 uM after 90 mins relative to control
Chain of UniProt P57059 (P57059 whole entry): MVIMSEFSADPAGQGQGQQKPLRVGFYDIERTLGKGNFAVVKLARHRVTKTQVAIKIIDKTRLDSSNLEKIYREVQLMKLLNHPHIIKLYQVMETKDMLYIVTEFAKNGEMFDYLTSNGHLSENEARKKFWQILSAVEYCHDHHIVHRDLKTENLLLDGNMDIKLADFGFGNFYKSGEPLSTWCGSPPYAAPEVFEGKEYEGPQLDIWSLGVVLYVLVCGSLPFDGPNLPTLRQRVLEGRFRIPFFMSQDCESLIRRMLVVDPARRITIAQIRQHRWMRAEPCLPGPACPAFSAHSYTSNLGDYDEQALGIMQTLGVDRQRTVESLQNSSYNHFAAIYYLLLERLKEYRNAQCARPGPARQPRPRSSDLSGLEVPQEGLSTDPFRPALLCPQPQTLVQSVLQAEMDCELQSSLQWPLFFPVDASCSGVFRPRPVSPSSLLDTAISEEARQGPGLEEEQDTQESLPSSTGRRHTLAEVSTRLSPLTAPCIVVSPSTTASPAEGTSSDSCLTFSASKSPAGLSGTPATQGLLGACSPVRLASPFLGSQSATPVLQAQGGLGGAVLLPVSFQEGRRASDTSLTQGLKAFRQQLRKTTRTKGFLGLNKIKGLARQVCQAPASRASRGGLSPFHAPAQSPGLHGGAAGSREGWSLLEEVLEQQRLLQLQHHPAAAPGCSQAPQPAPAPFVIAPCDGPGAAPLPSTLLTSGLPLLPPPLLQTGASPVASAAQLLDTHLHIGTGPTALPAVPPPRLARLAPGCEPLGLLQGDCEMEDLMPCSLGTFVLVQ

[18] = species on record: Danio rerio; test: Toxicity in zebrafish embryo at 20 uM after 24 hrs; format: organism-based; settings: in vivo
Outline: (§1)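 Zebrafish embryos collected and kept in E3 medium at 28 °C. Compound added at 24 hpf, and phenotypes (growth, tail morphology) were compared at 96 hpf against control embryos in 1% DMSO. Lethality was followed over time up to 120 hpf across a concentration series.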

[19] = species on record: Danio rerio; test: Toxicity in zebrafish embryo assessed as crooked tails at 30 uM after 24 hrs; format: organism-based; settings: in vivo; outline: as §1
[20] = Toxicity in zebrafish embryo assessed as lethality at 50 and 100 uM after 120 hrs; format: organism-based, Danio rerio; settings: in vivo, read-out: Activity
Outline: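 Zebrafish embryos kept in E3 medium at 28 °C; compound added at 24 hpf, with 1% DMSO embryos as control. Concentrations from 1 to 100 µM. Lethality recorded over time through 120 hpf, with phenotype also compared at 96 hpf.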

[21] = molecular target: Aurora kinase A (Homo sapiens) (UniProt O14965); test: Inhibition of human recombinant AurA/Aur2 kinase expressed Sf21 cells using Ulight-RRRSLLE substrate assessed as remaining enzyme activity at 1 uM after 15 mins relative to control
[22] = molecular target: Calcium/calmodulin-dependent protein kinase type II subunit alpha (Homo sapiens) (UniProt Q9UQM7); test: Inhibition of human recombinant CaMK2alpha using Ulight-CGSGSGRPRTSSFAEG substrate assessed as remaining enzyme activity at 1 uM after 30 mins relative to control
[23] = molecular target: Epidermal growth factor receptor (Homo sapiens) (UniProt P00533); test: Inhibition of human recombinant EGFR kinase expressed insect cells using Ulight-CAGAGAIETDKEYYTVKD substrate assessed as remaining enzyme activity at 1 uM after 15 mins relative to control
[24] = molecular target: Ephrin type-A receptor 2 (Homo sapiens) (UniProt P29317); test: Inhibition of human recombinant EphA2 kinase using Ulight-TK peptide substrate assessed as remaining enzyme activity at 1 uM after 30 mins relative to control

Which Activity [1] does the source give for O=C1Nc2ccc(Cl)cc2/C1=C/c1cc(Br)c(O)c(Br)c1 here?
Its Activity is 108%.

What about the Activity [2] of the same compound?
Its Activity is 100%.

And the Activity [3]?
Its Activity is 101%.

And the Activity [4]?
Its Activity is 91%.

And the Activity [5]?
Its Activity is 82%.

What about the Activity [6] of the same compound?
Its Activity is 4%.

What about the Activity [7] of the same compound?
The Activity was 95%.

What about the Activity [8] of the same compound?
The Activity was 52%.

And the Activity [9]?
The Activity was 104%.

What about the Activity [10] of the same compound?
Its Activity is 86%.

What about the Activity [11] of the same compound?
The Activity was 92%.

What about the Activity [12] of the same compound?
The Activity was 76%.

And the Activity [13]?
The Activity was 86%.

And the Activity [14]?
Its Activity is 29%.

What about the Activity [15] of the same compound?
Its Activity is 103%.

And the Activity [16]?
Its Activity is 85%.

What about the Activity [17] of the same compound?
Its Activity is 92%.

What about the Activity [18] of the same compound?
The Activity was “Toxic”.

What about the Activity [19] of the same compound?
Its Activity is “Toxic”.

And the mortality at 120 h [20]?
Its mortality at 120 h is 100%.

What about the Activity [21] of the same compound?
Its Activity is 73%.

What about the Activity [22] of the same compound?
Its Activity is 105%.

And the Activity [23]?
The Activity was 58%.

And the Activity [24]?
The Activity was 90%.

— ChEMBL document CHEMBL3352815, “Indolinone based LRRK2 kinase inhibitors with a key hydrogen bond” (Bioorg Med Chem Lett, 2014)
